# Some of the results follow.
# B1: DC-ASGPR-short (Homo sapiens) (protein)
# chain: MTRTYENFQYLENKVKVQGFKNGPLPLQSLLQRLRSGPCHLLLSLGLGLLLLVIICVVGFQNSKFQRDLVTLRTDFSNFTSNTVAEIQALTSQGSSLEETIASLKAEVEGFKQERQAVHSEMLLRVQQLVQDLKKLTCQVATLNNNASTEGTCCPVNWVEHQDSCYWFSHSGMSWAEAEKYCQLKNAHLVVINSREEQNFVQKYLGSAYTWMGLSDPEGAWKWVDGTDYATGFQNWKPGQPDDWQGHGLGGGEDCAHFHPDGRWNDDVCQRPYHWVCEAGLGQTSQESH
# Key:
# Experiment in all cases: glycan array binding signal (z-score within array); higher = stronger binding
# Settings in all cases: glycan notation: IUPAC condensed, linker removed
# [1] = target: Fuc(a1-2)Gal
# Summary of the method: (§1)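 Columns mapping to the same glycan were averaged after glycan names were converted to IUPAC-condensed notation. The data come from 3228 arrays in the Consortium for Functional Glycomics database, limited to those with an available protein sequence. Binding is reported as a within-array Z-score averaged across arrays of one protein sequence and across linkers.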
# [2] = target: Fuc(a1-2)Gal(b1-3)GalNAc
# Summary of the method: as §1
# [3] = target: Fuc(a1-2)Gal(b1-3)GalNAc(a1-3)[Fuc(a1-2)]Gal(b1-4)Glc
# Summary of the method: as §1
# [4] = target: Fuc(a1-2)Gal(b1-3)GalNAc(a1-3)[Fuc(a1-2)]Gal(b1-4)GlcNAc
# Summary of the method: as §1
# [5] = target: Fuc(a1-2)Gal(b1-3)GalNAc(b1-3)Gal
# Summary of the method: as §1
# [6] = target: Fuc(a1-2)Gal(b1-3)GalNAc(b1-3)Gal(a1-4)Gal(b1-4)Glc
# Summary of the method: as §1
# [7] = target: Fuc(a1-2)Gal(b1-3)GalNAc(b1-4)[Neu5Ac(a2-3)]Gal(b1-4)Glc
# Summary of the method: as §1
# [8] = target: Fuc(a1-2)Gal(b1-3)GlcNAc
# Summary of the method: as §1
# [9] = target: Fuc(a1-2)Gal(b1-3)GlcNAc(b1-2)Man(a1-3)[Fuc(a1-2)Gal(b1-3)GlcNAc(b1-2)Man(a1-6)]Man(b1-4)GlcNAc(b1-4)GlcNAc
# Summary of the method: as §1
# [10] = target: Fuc(a1-2)Gal(b1-3)GlcNAc(b1-2)Man(a1-3)[Fuc(a1-2)Gal(b1-3)GlcNAc(b1-2)Man(a1-6)]Man(b1-4)GlcNAc(b1-4)[Fuc(a1-6)]GlcNAc
# Summary of the method: as §1
# [11] = target: Fuc(a1-2)Gal(b1-3)GlcNAc(b1-3)Gal(b1-4)Glc
# Summary of the method: as §1
# [12] = target: Fuc(a1-2)Gal(b1-3)GlcNAc(b1-3)GalNAc
# Summary of the method: as §1
# [13] = target: Fuc(a1-2)Gal(b1-3)GlcNAc(b1-3)[Fuc(a1-2)Gal(b1-3)GlcNAc(b1-6)]GalNAc
# Summary of the method: as §1
# [14] = target: Fuc(a1-2)Gal(b1-3)GlcNAc(b1-3)[Gal(b1-4)GlcNAc(b1-6)]Gal(b1-4)Glc
# Summary of the method: as §1
# [15] = target: Fuc(a1-2)Gal(b1-3)GlcNAc(b1-3)[Neu5Ac(a2-6)Gal(b1-4)GlcNAc(b1-6)]Gal(b1-4)Glc
# Summary of the method: as §1
# [16] = target: Fuc(a1-2)Gal(b1-3)GlcNAc6S
# Summary of the method: as §1
# [17] = target: Fuc(a1-2)Gal(b1-3)[Fuc(a1-4)]GlcNAc
# Summary of the method: as §1
# [18] = target: Fuc(a1-2)Gal(b1-3)[Fuc(a1-4)]GlcNAc(b1-2)Man(a1-3)[Fuc(a1-2)Gal(b1-3)[Fuc(a1-4)]GlcNAc(b1-2)Man(a1-3)]Man(b1-4)GlcNAc(b1-4)GlcNAc
# Summary of the method: as §1
# [19] = target: Fuc(a1-2)Gal(b1-3)[Fuc(a1-4)]GlcNAc(b1-2)Man(a1-3)[Fuc(a1-2)Gal(b1-3)[Fuc(a1-4)]GlcNAc(b1-2)Man(a1-6)]Man(b1-4)GlcNAc(b1-4)[Fuc(a1-6)]GlcNAc(b1-4)[Fuc(a1-6)]GlcNAc
# Summary of the method: as §1
# [20] = target: Fuc(a1-2)Gal(b1-3)[Fuc(a1-4)]GlcNAc(b1-3)[Fuc(a1-3)[Gal(b1-4)]GlcNAc(b1-6)]Gal(b1-4)Glc
# Summary of the method: as §1
# [21] = target: Fuc(a1-2)Gal(b1-3)[Fuc(a1-4)]GlcNAc(b1-3)[Gal(b1-4)GlcNAc(b1-6)]Gal(b1-4)Glc
# Summary of the method: as §1
# [22] = target: Fuc(a1-2)Gal(b1-4)Fuc(a1-3)]GlcNAc(b1-2)Man(a1-3)[Fuc(a1-2)Gal(b1-4)[Fuc(a1-3)]GlcNAc(b1-2)Man(a1-6)]Man(b1-4)GlcNAc(b1-4)GlcNAc
# Summary of the method: as §1
# [23] = target: Fuc(a1-2)Gal(b1-4)Glc
# Summary of the method: as §1
# [24] = target: Fuc(a1-2)Gal(b1-4)Glc6S
# Summary of the method: as §1
# [25] = target: Fuc(a1-2)Gal(b1-4)GlcNAc
# Summary of the method: as §1
# [26] = target: Fuc(a1-2)Gal(b1-4)GlcNAc(b1-2)Man
# Summary of the method: as §1
# [27] = target: Fuc(a1-2)Gal(b1-4)GlcNAc(b1-2)Man(a1-3)[Fuc(a1-2)Gal(b1-4)GlcNAc(b1-2)Man(a1-6)]Man(b1-4)GlcNAc(b1-4)GlcNAc
# Summary of the method: as §1
# [28] = target: Fuc(a1-2)Gal(b1-4)GlcNAc(b1-2)Man(a1-3)[Fuc(a1-2)Gal(b1-4)GlcNAc(b1-2)Man(a1-6)]Man(b1-4)GlcNAc(b1-4)[Fuc(a1-6)]GlcNAc
# Summary of the method: as §1
# [29] = target: Fuc(a1-2)Gal(b1-4)GlcNAc(b1-2)[Fuc(a1-2)Gal(b1-4)GlcNAc(b1-4)]Man(a1-3)[Fuc(a1-2)Gal(b1-4)GlcNAc(b1-2)Man(a1-6)]Man(b1-4)GlcNAc(b1-4)GlcNAc
# Summary of the method: as §1
# [30] = target: Fuc(a1-2)Gal(b1-4)GlcNAc(b1-3)Gal(b1-4)GlcNAc
# Summary of the method: as §1
binder,measurement,setting,value
B1,glycan array binding signal (z-score),[1],-0.257
same,glycan array binding signal (z-score),[2],-0.273
same,glycan array binding signal (z-score),[3],-0.28
same,glycan array binding signal (z-score),[4],-0.266
same,glycan array binding signal (z-score),[5],-0.231
same,glycan array binding signal (z-score),[6],-0.258
same,glycan array binding signal (z-score),[7],0.016
same,glycan array binding signal (z-score),[8],-0.264
same,glycan array binding signal (z-score),[9],-0.216
same,glycan array binding signal (z-score),[10],-0.173
same,glycan array binding signal (z-score),[11],-0.273
same,glycan array binding signal (z-score),[12],-0.271
same,glycan array binding signal (z-score),[13],-0.245
same,glycan array binding signal (z-score),[14],-0.273
same,glycan array binding signal (z-score),[15],-0.276
same,glycan array binding signal (z-score),[16],0.225
same,glycan array binding signal (z-score),[17],-0.274
same,glycan array binding signal (z-score),[18],-0.249
same,glycan array binding signal (z-score),[19],-0.25
same,glycan array binding signal (z-score),[20],-0.274
same,glycan array binding signal (z-score),[21],-0.276
same,glycan array binding signal (z-score),[22],-0.238
same,glycan array binding signal (z-score),[23],-0.265
same,glycan array binding signal (z-score),[24],-0.282
same,glycan array binding signal (z-score),[25],-0.275
same,glycan array binding signal (z-score),[26],-0.271
same,glycan array binding signal (z-score),[27],-0.248
same,glycan array binding signal (z-score),[28],-0.189
same,glycan array binding signal (z-score),[29],-0.277
same,glycan array binding signal (z-score),[30],-0.279

# From the supplement of paper PMC8728848
